According to article PMC4336329 (PLoS ONE, 2015):
The whole screen tested about 310,000 compounds, of which about 2,200 (0.71%) showed an effect of 50% or more. Effects have a minus sign here. The list shows a part of the results.

Target: human ether-à-go-go-related gene (hERG) potassium channel (human, UniProt Q12809)
Experiment: primary screen, population patch clamp on CHO cells stably expressing hERG

Sequence of human ether-à-go-go-related gene (hERG) potassium channel (Q12809 whole entry, looked up): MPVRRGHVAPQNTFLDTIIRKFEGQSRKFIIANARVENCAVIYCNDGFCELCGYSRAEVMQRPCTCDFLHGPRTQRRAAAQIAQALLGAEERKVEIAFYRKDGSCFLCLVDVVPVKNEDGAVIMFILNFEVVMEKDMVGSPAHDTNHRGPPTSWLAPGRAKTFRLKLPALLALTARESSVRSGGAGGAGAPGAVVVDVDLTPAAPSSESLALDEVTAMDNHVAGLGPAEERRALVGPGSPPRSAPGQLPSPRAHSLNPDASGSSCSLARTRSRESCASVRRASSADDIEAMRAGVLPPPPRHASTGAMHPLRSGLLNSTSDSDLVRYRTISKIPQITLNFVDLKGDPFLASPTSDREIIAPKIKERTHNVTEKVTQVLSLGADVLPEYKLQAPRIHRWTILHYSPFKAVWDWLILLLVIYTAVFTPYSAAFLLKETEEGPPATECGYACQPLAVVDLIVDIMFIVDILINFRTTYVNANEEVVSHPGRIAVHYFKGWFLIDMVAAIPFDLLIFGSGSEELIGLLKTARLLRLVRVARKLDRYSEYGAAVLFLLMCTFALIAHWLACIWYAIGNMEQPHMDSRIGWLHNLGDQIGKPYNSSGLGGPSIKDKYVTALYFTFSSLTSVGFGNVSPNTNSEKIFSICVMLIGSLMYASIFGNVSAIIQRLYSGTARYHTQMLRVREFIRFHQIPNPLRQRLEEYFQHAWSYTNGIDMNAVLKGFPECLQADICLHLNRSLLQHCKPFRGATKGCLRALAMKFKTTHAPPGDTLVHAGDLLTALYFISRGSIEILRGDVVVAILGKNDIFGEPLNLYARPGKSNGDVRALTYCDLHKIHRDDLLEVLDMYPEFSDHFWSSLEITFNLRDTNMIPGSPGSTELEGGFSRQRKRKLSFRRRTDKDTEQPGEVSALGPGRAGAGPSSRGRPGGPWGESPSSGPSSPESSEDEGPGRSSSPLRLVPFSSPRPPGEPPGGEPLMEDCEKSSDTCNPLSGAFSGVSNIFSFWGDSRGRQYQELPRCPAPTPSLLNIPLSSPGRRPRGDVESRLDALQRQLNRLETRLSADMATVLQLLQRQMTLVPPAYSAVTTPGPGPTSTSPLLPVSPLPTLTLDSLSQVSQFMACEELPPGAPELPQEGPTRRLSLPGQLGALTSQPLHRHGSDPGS

First: CCOCCCNC(=O)c1cn(CC)c2ccc(S(=O)(=O)N(C)C3CCCCC3)cc2c1=O
Second: Cc1ccc(S(=O)(=O)N2CCCC2)cc1C(=O)NCCOc1ccccc1
The “hERG current change (%, negative = inhibition) at 1uM” value of the first is higher: 11.3% for the first, 8.99% for the second.

Compared with `Cc1cc(NC(=O)Nc2cc(F)ccc2C)n(C)n1`, `COc1cccc(C(=O)Nc2cc(NC(=O)c3cccs3)ccc2C)c1` is lower in “hERG current change (%, negative = inhibition) at 1uM” value: 13.6% for the first, 8.92% for the second.

First: COc1ccccc1N1CCN(S(=O)(=O)c2cccc(F)c2)CC1
Second: O=C1COc2ccc(S(=O)(=O)N3CCN(c4ccccc4F)CC3)cc2N1
The “hERG current change (%, negative = inhibition) at 1uM” value of the first is higher: 15% for the first, 7.78% for the second.

Compared with `COc1ccc(CC(C)N2CCN(Cc3ccccc3)CC2)c(OC)c1` (stereo not shown), `COc1ccc(CN2CCN(CCc3ccccc3)C(CCO)C2)c(Cl)c1OC` (stereo not shown) is higher in “hERG current change (%, negative = inhibition) at 1uM” value: -36.6% for the first, -28.1% for the second.

Compared with `COc1ccc(CC2SC(=Nc3ccc(F)cc3)NC2=O)cc1` (stereo not shown), `COc1ccc(Cn2c(=O)[nH]c3cc(C(=O)NCCCN4CCCCCC4)ccc3c2=O)cc1` is lower in “hERG current change (%, negative = inhibition) at 1uM” value: 12.1% for the first, 10.8% for the second.

Compared with `CCCSc1nnc(-c2ccccc2N)c(=O)[nH]1`, `N#CCCCSC1=C(C#N)C(c2ccccc2Cl)CC(=O)N1` (stereo not shown) is lower in “hERG current change (%, negative = inhibition) at 1uM” value: 6.68% for the first, -11.5% for the second.

Going from `CC(=O)CCSc1nnc(-c2cccc(S(=O)(=O)N3CCOCC3)c2)o1` to `Cc1oc(-c2cccc(Cl)c2)nc1CS(=O)(=O)CC(=O)NC1CCCC1`, the “hERG current change (%, negative = inhibition) at 1uM” value rises from 9.82% to 11.2%.

Compared with `Cc1ccccc1NC(=S)NCC1CCN(C(C)c2ccccc2)C1` (stereo not shown), `COc1ccc(CCNC(=S)NC(=O)c2ccccc2)cc1C` is higher in “hERG current change (%, negative = inhibition) at 1uM” value: 10.9% for the first, 11.1% for the second.

Compared with `CNS(=O)(=O)c1cc(NC(=O)c2cncn2-c2ccccc2)ccc1C`, `CCC(=O)NC(=S)Nc1cccc(NC(=O)c2ccccc2C)c1` is higher in “hERG current change (%, negative = inhibition) at 1uM” value: 6.11% for the first, 22.9% for the second.

Compared with `CC(C)n1cc(C(N)=S)c(=O)n(Cc2ccccc2)c1=O`, `O=C(NCCc1ccccc1)c1ccc(=O)[nH]c1` is lower in “hERG current change (%, negative = inhibition) at 1uM” value: 12.5% for the first, 11.7% for the second.

Compared with `Cc1nn(C)cc1/C=N\NC(=O)Cc1ccc([N+](=O)[O-])cc1`, `CCOC(=O)c1nnn(-c2ccc([N+](=O)[O-])cc2)c1C` is higher in “hERG current change (%, negative = inhibition) at 1uM” value: -1.5% for the first, -0.613% for the second.

First: Nc1ncnc2c1nc(Sc1ccc(Cl)cc1)n2[C@@H]1O[C@@H]2COP(=O)([O-])O[C@H]2[C@H]1O.[Na+]
Second: O=C(COC(=O)c1nc(Cl)ccc1Cl)Nc1ccc(Cl)cc1
The “hERG current change (%, negative = inhibition) at 1uM” value of the first is lower: 3.93% for the first, 10.7% for the second.

Going from `Cc1ccc(-c2noc(COc3ccccc3C)n2)cc1` to `COc1ccc(/C=N/NC(=O)c2cccnc2)cc1CSc1nc2ccccc2s1`, the “hERG current change (%, negative = inhibition) at 1uM” value falls from 13.3% to 3.79%.

Going from `O=C(NC12CC3CC(CC(C3)C1)C2)c1cc(F)c(F)c(F)c1F` to `CN(C(=O)COc1ccc(Cl)cc1Cl)c1nnc(C23CC4CC(CC(C4)C2)C3)s1`, the “hERG current change (%, negative = inhibition) at 1uM” value falls from 22.8% to 13.2%.

Going from `O=C(Nc1ccc(C(=O)N2CCN(c3ccc(Cl)cc3)CC2)cc1)C1=CSCCO1` to `CC(=O)c1ccc(N2CCN(C(=S)Nc3ccccc3F)CC2)cc1`, the “hERG current change (%, negative = inhibition) at 1uM” value rises from 10.9% to 15.2%.

Going from `COc1cc2ccccc2cc1C(=O)N1CC(C)CC(C)C1` (stereo not shown) to `CCc1ccc(NC(=S)N2CCC(NC(=O)c3ccccc3OC)CC2)cc1`, the “hERG current change (%, negative = inhibition) at 1uM” value rises from -3.89% to 7.54%.

Compared with `CC1(C)CC(=O)C(C=NCCN2CCN(C(=O)c3ccc(F)cc3)CC2)=C(O)C1`, `O=C(c1ccco1)N1CCN(Cc2nc3cc(Cl)ccc3c(=O)[nH]2)CC1` is lower in “hERG current change (%, negative = inhibition) at 1uM” value: 11.4% for the first, -43.5% for the second.

Going from `CCC(C)(C)n1nnnc1CN1CCC(n2c(C)nc3cc(C(F)(F)F)ccc32)CC1` to `CCOC(=O)C1CCN(Cc2ccc(Cl)c(Cl)c2)CC1`, the “hERG current change (%, negative = inhibition) at 1uM” value rises from 2.56% to 9.26%.

Compared with `O=C(CSc1ccccn1)Nc1ccc(F)c([N+](=O)[O-])c1`, `O=C(NCCCNc1ccc([N+](=O)[O-])cc1Cl)c1ccccc1F` is lower in “hERG current change (%, negative = inhibition) at 1uM” value: 11% for the first, 0.379% for the second.

First: COC(=O)C(Cc1c[nH]c2ccccc12)NC(=O)c1cccs1 (stereo not shown)
Second: O=C(Cn1cnc2ccc(Br)cc2c1=O)c1cccs1
The “hERG current change (%, negative = inhibition) at 1uM” value of the first is higher: 14% for the first, 12.4% for the second.

Compared with `CC(Oc1ccccc1)C(=O)Nc1nnc(S(=O)(=O)N2CCCCC2)s1` (stereo not shown), `COc1cc(C(=O)Nc2cccc(S(=O)(=O)N3CCCC3)c2)c([N+](=O)[O-])cc1OC` is lower in “hERG current change (%, negative = inhibition) at 1uM” value: 11.5% for the first, 9.55% for the second.

First: Cc1[nH]c2ccccc2c1CCNS(=O)(=O)c1ccc(S(N)(=O)=O)cc1
Second: Cc1ccc(S(=O)(=O)NCCCCCC(N)=O)cc1
The “hERG current change (%, negative = inhibition) at 1uM” value of the first is higher: 9.54% for the first, 2.58% for the second.

Compared with `CCOC(=O)c1c(-c2ccccc2)nc2ccccn12`, `Cc1cccn2c(=O)c3cc(C#N)c(=NC(=O)c4ccccc4)n(Cc4ccco4)c3nc12` is lower in “hERG current change (%, negative = inhibition) at 1uM” value: 10.5% for the first, -4.91% for the second.

Compared with `Cc1cccc(C(=O)OCC(=O)N2CCCC2=O)c1O`, `NC(=O)c1ccccc1OCC(=O)N1CCc2ccccc2C1` is higher in “hERG current change (%, negative = inhibition) at 1uM” value: 3.33% for the first, 6.64% for the second.

First: CCN(CC)C(=O)c1[nH]cnc1C(=O)N[C@@H](CCCCNC(=O)OC(C)(C)C)C(=O)OC(C)(C)C
Second: CCOC(=O)CSc1nc2ccccc2n1C(=O)OCC
The “hERG current change (%, negative = inhibition) at 1uM” value of the first is higher: 11.4% for the first, 5.05% for the second.

Going from `CCc1ccc(N(C(=O)c2csnn2)C(C(=O)NC2CCCCC2)c2cccnc2)cc1` (stereo not shown) to `Cc1cc(C(C)(C)C)oc1C(=O)N(CC(=O)NC1CCCC1)c1ccc(F)cc1`, the “hERG current change (%, negative = inhibition) at 1uM” value rises from 11.3% to 12.2%.

First: COc1ccc(N2CCN(S(=O)(=O)c3ccc(Br)s3)CC2)cc1
Second: COc1cccc(N2CCN(C(=O)c3cc4ccc(OC)cc4[nH]3)CC2)c1
The “hERG current change (%, negative = inhibition) at 1uM” value of the first is lower: -3.97% for the first, 16% for the second.

First: COC(=O)c1cccc(NC(=S)Nc2cccc(Cl)c2C)c1
Second: Cc1cccc(NC(=O)/C(C#N)=C\c2ccc(C(=O)O)cc2)c1
The “hERG current change (%, negative = inhibition) at 1uM” value of the first is higher: 12.3% for the first, 2.84% for the second.

First: CCOc1cccc2c1OC1(C)CC2NC(=O)N1c1cccc(Cl)c1 (stereo not shown)
Second: C[C@@]12CC(=O)NC1N(C(=O)c1cccc(C(F)(F)F)c1)C(c1ccccc1O)C2 (stereo partly shown)
The “hERG current change (%, negative = inhibition) at 1uM” value of the first is lower: 6.42% for the first, 17.4% for the second.

Going from `COc1ccc(NC(=O)COC(=O)c2ccc3c(c2)OCCO3)cc1OC` to `CC(Nc1ccc2c(c1)OCCO2)C(=O)Nc1ccc2c(c1)OCO2` (stereo not shown), the “hERG current change (%, negative = inhibition) at 1uM” value rises from 8.96% to 13.8%.

Going from `CC(C)Cn1cnc2c(c1=N)C(c1ccccc1)C1=C(CC(C)(C)CC1=O)O2` (stereo not shown) to `CC1(C)CC(=O)c2cc(OCC(=O)NCCN3CCCc4ccccc43)ccc2O1`, the “hERG current change (%, negative = inhibition) at 1uM” value falls from -10.7% to -12.8%.

Compared with `CCOC(=O)Cc1csc(NC(=O)CSc2nnc(-n3nc(C)cc3C)c3ccccc23)n1`, `CCOC(=O)Cc1csc(SCC(=O)Nc2nccs2)n1` is higher in “hERG current change (%, negative = inhibition) at 1uM” value: -21% for the first, 4.1% for the second.

Compared with `O=C(NCc1cccc(C(F)(F)F)c1)C1CCCN(c2ncccn2)C1` (stereo not shown), `CN1C[C@@H]2C[C@@H](c3cccn3-c3ccccn3)N3CCC[C@@]23C1=O` is lower in “hERG current change (%, negative = inhibition) at 1uM” value: -7.15% for the first, -11.6% for the second.

Compared with `CC(C(=O)Nc1ccc(N(C)C)cc1)N1C(=O)c2ccccc2S1(=O)=O` (stereo not shown), `CC(=O)c1ccc(NC(=O)C(C)N(C)CC(=O)Nc2cccc(F)c2)cc1` (stereo not shown) is lower in “hERG current change (%, negative = inhibition) at 1uM” value: 12.7% for the first, 1.4% for the second.

Going from `Cc1ccccc1CN1CCNC(=O)C1CC(=O)NCCC1=CCCCC1` (stereo not shown) to `Cc1ccc(CN2CCC(n3nccc3NC(=O)CCOc3ccccc3)CC2)cc1C`, the “hERG current change (%, negative = inhibition) at 1uM” value falls from 10.6% to -23.3%.

First: COc1ccc(-c2cc(C(=O)N3CCCCC3)no2)cc1OC
Second: CC(C)c1ccc(-c2c(C#N)c(N)nc(SCC(=O)N3CCCCCC3)c2C#N)cc1
The “hERG current change (%, negative = inhibition) at 1uM” value of the first is higher: 17.5% for the first, 8.31% for the second.

Going from `COc1ccc(NC(=O)CN(C)S(=O)(=O)c2cnc[nH]2)cc1Cl` to `COc1ccccc1NC(=O)CN(Cc1ccco1)C(=O)c1ccc(Cl)nc1`, the “hERG current change (%, negative = inhibition) at 1uM” value falls from 5.27% to 4.49%.

Going from `CCOC(=O)C(C)OC(=O)C1=C(C)NC(=O)NC1c1ccc2c(c1)OCO2` (stereo not shown) to `CCCc1cc(=O)oc2cc(C)cc(OCC(=O)Nc3ccc(CN4CCOCC4)cc3)c12`, the “hERG current change (%, negative = inhibition) at 1uM” value rises from 7.26% to 10.4%.

Compared with `O=S1(=O)OCCC(c2ccccc2)N1Cc1ccccc1` (stereo not shown), `O=C(CCCn1c(=O)oc2ccccc21)N1CCc2ccccc2C1` is lower in “hERG current change (%, negative = inhibition) at 1uM” value: 5.74% for the first, -4.21% for the second.

First: COc1ccc(CCc2nnc(CCC(=O)NCC3CCCO3)o2)cc1 (stereo not shown)
Second: COC(=O)c1ccc(NC(=O)CSc2nnc(C)n2CC2CCCO2)cc1 (stereo not shown)
The “hERG current change (%, negative = inhibition) at 1uM” value of the first is higher: 15.2% for the first, 5.53% for the second.

First: O=[N+]([O-])c1ccccc1S(=O)(=O)N1CCN(c2ccccn2)CC1
Second: CC(C)c1ccc(S(=O)(=O)NC2CCCC2)cc1
The “hERG current change (%, negative = inhibition) at 1uM” value of the first is higher: 14.7% for the first, 9.53% for the second.

First: COc1ccc(C(=O)Nc2cccc(/C=C(\CCC(=O)O)c3nc4ccccc4s3)c2)cc1
Second: O=C(NCCc1ccccc1)c1ccc2c(=O)[nH]c3c(C(=O)NCC4CCCO4)sc(=S)n3c2c1 (stereo not shown)
The “hERG current change (%, negative = inhibition) at 1uM” value of the first is lower: 5.81% for the first, 14% for the second.

Going from `Cc1c(Cl)c(C(F)(F)F)nn1CC(=O)N1CCSCC1` to `CN(C)c1cccc(C(=O)NCc2ccc(Cl)cc2)c1`, the “hERG current change (%, negative = inhibition) at 1uM” value rises from 6.45% to 13.5%.

First: O=C(NCc1cccnc1)c1ccc(Br)s1
Second: CCCC(=O)NCc1ccncc1
The “hERG current change (%, negative = inhibition) at 1uM” value of the first is lower: 3.57% for the first, 14.5% for the second.
